Source: publication PMC13083723 (Patterns, 2026)
The campaign covered roughly 5,400 compounds. About 190 (3.5%) showed an effect of 50% or more. The list shows a part of the results. Starred links: 1 amine or outer side, 2 acyl side, 3 side chain; linkers in the order of their positions; H or OH if unused. Positions of bridges follow the written chain, without caps; N, C: chain ends. Non-standard residues stand in square brackets, D forms with d. Residues, ends and D or L forms follow the SMILES beside them. ξ: configuration not given here. *: point of attachment. pTerphenylCO(4''-OnC5H11) = CCCCCOc1ccc(-c2ccc(-c3ccc(C(=O)*)cc3)cc2)cc1; ξOrn(4,5-diOH) = O=C(C(CC(O)C(O)N[*:3])N[*:1])[*:2]; ξhTyr(βξ-OH,γξ-OH) = NC(C(=O)O)C(O)C(O)c1ccc(O)cc1; ξPro(3ξ-OH,4ξ-Me) = CC1CNC(C(=O)O)C1O; Hyp = O=C(O)[CH]1C[CH](O)CN1

These compounds were tested on Vero-E6 (assay: primary screen, phospholipidosis by LipidTOX staining; higher = more effect of the substance). Settings: 10 µM.
Procedure, shortened: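 Single-concentration screen at 10 μM, with DMSO 0.1 v/v % and amiodarone 10 μM as controls. Read-out is LipidTOX Red phospholipid staining, which tolerates aldehyde fixation, in Vero-E6 cells.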

SMILES | result_ITMP [%]
C=C(C)[C@@H]1CC[C@]2(C(=O)O)CC[C@]3(C)[C@H](CC[C@@H]4[C@@]5(C)CC[C@H](O)C(C)(C)[C@@H]5CC[C@]43C)[C@@H]12 | -4.18
O=C1CC2OCC=C3CN4CC[C@]56c7ccccc7N1C5[C@H]2[C@H]3CC46 (some centres unmarked) | 1.13
O=c1ccc2cc3ccoc3cc2o1 | -3.37
Nc1nnc(Sc2ncc([N+](=O)[O-])s2)s1 | -17.1
N[C@H](C(=O)O)c1ccc(C(=O)O)c(C(=O)O)c1 | -0.83
N[C@@H](CS)C(=O)O | -1.13
CC(=O)CC(=O)[O-] | 1.77
O=C1NCCN1c1ncc([N+](=O)[O-])s1 | -3.62
C[Se]CC[C@H](N)C(=O)O | -2.64
C1N2CN3CN1CN(C2)C3 | -0.33
Cc1cccc(C)c1NC1=NCCCS1 | 1.07
CCOC(=O)COc1ccc2c(c1)C[C@@H](NC[C@H](O)c1cccc(Cl)c1)CC2 | 13.9
C[C@H]1[C@H](C)CC[C@]2(C(=O)O)CC[C@]3(C)C(=CC[C@@H]4[C@@]5(C)C[C@@H](O)[C@H](O)[C@@](C)(CO)[C@@H]5CC[C@]43C)[C@H]12 | -2.77
CCOCCn1c(C2CCN(CCc3ccc(C(C)(C)C(=O)O)cc3)CC2)nc2ccccc21 | 0.13
O=C1CCC[C@@H]2[C@H]3CCCN4CCC[C@@H](CN12)[C@@H]34 | -5.82
Nc1ccc(S(=O)(=O)NC(=O)c2ccccc2)cc1 | -1.93
CCCCCOc1ccc(-c2ccc(-c3ccc(C(=O)N[C@H]4C[C@@H](O)[C@@H](O)NC(=O)[C@@H]5[C@@H](O)[C@@H](C)CN5C(=O)[C@H]([C@@H](C)O)NC(=O)[C@H]([C@H](O)[C@@H](O)c5ccc(O)cc5)NC(=O)[C@@H]5C[C@@H](O)CN5C(=O)[C@H]([C@@H](C)O)NC4=O)cc3)cc2)cc1 ({pTerphenylCO(4''-OnC5H11)}-[ξOrn(4,5-diOH)]T[Hyp][ξhTyr(βξ-OH,γξ-OH)]T[ξPro(3ξ-OH,4ξ-Me)]; lactam 1-C; configuration not given here) | -3.94
C=C(CC)C(=O)c1ccc(OCC(=O)O)c(Cl)c1Cl | -0.2
CCNC(=O)[C@H]1O[C@@H](n2cnc3c(N)ncnc32)[C@H](O)[C@@H]1O | -1.12
CCCCC/C=C\C/C=C\C/C=C\C/C=C\CCCC(=O)Nc1ccc(O)cc1 | -2.52
CC1(C)N=C(N)N=C(N)N1OCCCOc1cc(Cl)c(Cl)cc1Cl | -6.07
COC(=O)N[C@H](C(=O)N1CC2(CC2)C[C@H]1c1ncc(-c2ccc3c(c2)C(F)(F)c2cc(-c4ccc5nc([C@@H]6[C@H]7CC[C@H](C7)N6C(=O)[C@@H](NC(=O)OC)C(C)C)[nH]c5c4)ccc2-3)[nH]1)C(C)C | 1.95
CC(C)=CCC[C@](C)(O)[C@H]1CC[C@]2(C)[C@@H]1[C@H](O)C[C@@H]1[C@@]3(C)CC[C@H](O[C@@H]4O[C@H](CO)[C@@H](O)[C@H](O)[C@H]4O[C@@H]4O[C@H](CO)[C@@H](O)[C@H](O)[C@H]4O)C(C)(C)[C@@H]3CC[C@]12C | 0.58
Cc1cccc(C)c1NC(=O)c1ccccc1C(=O)O | -7.21
O=C(COc1cccc2c(=O)[nH]ccc12)c1ccccc1 | -1.34

SMILES | result_ITMP [%]
CCNC(=O)[C@H]1O[C@@H](n2cnc3c(N)nc(NCCc4ccc(CCC(=O)O)cc4)nc32)[C@H](O)[C@@H]1O | -4.5
O=C(O)Cn1c(C(=O)Nc2nc(-c3ccccc3Cl)cs2)cc2ccccc21 | 0.39
CNC(=O)c1c(-c2ccc(F)cc2)oc2cc(N(CCO)S(C)(=O)=O)c(C3CC3)cc12 | 0.51
[N-]=[N+]=N[C@]1(CO)O[C@@H](n2ccc(N)nc2=O)[C@H](O)[C@@H]1O | 0.35
C[C@](N)(Cc1ccc(O)cc1)C(=O)O | -6.58
COc1cc2c(cc1OC)[C@@H]1CC(=O)[C@@H](CC(C)C)CN1CC2 | 6.09
CC(C)NCC(O)COc1cccc2ccccc12 (racemic) | 25.5
Cc1nc(Cn2cnc3c2c(=O)n(C)c(=O)n3C)no1 | -10.1
CS(=O)(=O)c1ccc([C@@H](O)[C@@H](CF)NC(=O)C(Cl)Cl)cc1 | 2.58
Oc1ccc(C2CNCCc3c2cc(O)c(O)c3Cl)cc1 (centres unmarked) | 2.86
CC(C(=O)O)c1cccc(Oc2ccccc2)c1 (centres unmarked) | -1.09
CC1(C)S[C@@H]2[C@H](N)C(=O)N2[C@H]1C(=O)O | 0.65
CC(C)=CCOc1ccc(/C=C/C(=O)c2ccc(OCC=C(C)C)cc2OCC(=O)O)cc1 | -7.43
C[C@H](N)Cn1ccc2cc(F)c(Cl)cc21 | 50.7
COc1cc(C(=S)N2CCOCC2)ccc1O | -1.12
O=C1OC(c2ccc(O)cc2)(c2ccc(O)cc2)c2ccccc21 | -3.7
C[C@H](Nc1ncnc2[nH]cnc12)c1cc2ccc(F)cc2nc1-c1ccccn1 [R4A_0002240_001 / SPE_K21077415] | -0.96
CNc1cc2c(Nc3cccc(Br)c3)ncnc2cn1 | -7.32
CCCc1ncc(C[n+]2ccccc2C)c(N)n1 | -2.82
O=C1NC(=O)/C(=C/c2ccc3nccc(-c4ccncc4)c3c2)S1 | -4.06
Cc1c(C)c2c(c(C)c1OC(=O)CCC(=O)OCCOCCOCCOCCOCCOCCOCCOCCOCCOCCOCCOCCOCCOCCOCCOCCOCCOCCOCCOCCOCCOCCO)CCC(C)(CCCC(C)CCCC(C)CCCC(C)C)O2 (centres unmarked) | -2.89
CN1Cc2c(C(=O)OC(C)(C)C)ncn2-c2ccsc2C1=O | -0.6
C[C@]12CCC(=O)C=C1C=CC1C2CC[C@@]2(C)C1CC[C@@]2(O)CCC(=O)[O-] (some centres unmarked) | -3.36
CC1(C)S[C@@H]2[C@H](NC(=O)[C@H](NC(=O)N3CCN(S(C)(=O)=O)C3=O)c3ccccc3)C(=O)N2[C@H]1C(=O)[O-] | -2.91
O=C(O)c1ccc(/C=C2\SC(=S)N(c3cccc(C(F)(F)F)c3)C2=O)cc1 | 0.16
